Experimental data published in the RNAGym collection of RNA variant scans (doi:10.7554/elife.90254).
Read counts are not given, so values of variants with three or more changes are uncertain.

B1: OR4K15 (parent)
chain: GUUAACGGUCAUAGGCCAUGGAAACUAGGAGCACCAUUUCGCUGCCAGUGAAGAAAUGAACAAAGAAAAUCUGGGCCAGGCAGGCAUCAAAAGAAAUAGUCUUGCGCUCAACCAGAAAGUCUGUAAUCAUUUUAAGGGUA

Variants of: B1
Assay: self-cleavage, relative activity (ratio to wild type); higher = more cleavage; in vitro, sequencing; the parent is a self-cleaving ribozyme

| Variant | self-cleavage |
| --- | --- |
| A22U A129G U133C | 1.86 |
| A22G A96G U103C A117U | 0.64 |
| A23G A63G A94G | 1.72 |
| A23G A27G U39C A62G | 0.81 |
| A23G A52G A56U A60G A111G A116G A118G | 0.03 |
| A23G A33G U102C | 1.77 |
| A23G A24G A55G A118G | 0.92 |
| A22U A27G A55G | 1.24 |
| A23G A59G U102C | 0.88 |
| A23G A24G G104A | 0 |
| A22U A55G A60G U100C A118G U122C | 1.24 |
| A22U U70C U122C | 0.75 |
| A23G A64G U103C | 0.1 |
| A22G U39C G48A A59G | 0.96 |
| A23G A27G A62U U100C | 1.18 |
| A23G A94G A96G | 2.02 |
| A22G G44A U102C | 1.52 |
| A23G U43C U108C U133A | 0.02 |
| A23G A56G U57C A126G | 0.24 |
| A23G G99U A118G | 0.52 |
| A23G A47U U97C U103A | 0.12 |

| Variant | self-cleavage |
| --- | --- |
| A23G A110G U131C | 0.08 |
| A22G U39A U102C A116G | 1.2 |
| A23G A69G A117G | 1.29 |
| A22U A68G U108C | 0 |
| A23G U37C U39A A51U A56G | 1.34 |
| A22G A92U A111G A114G | 0.03 |
| A22G U38A A54G | 1.36 |
| A22G U43C A89U U103A U133C | 1.01 |
| A23G A96U A110C | 0.33 |
| A22G A116G U127C U132C | 0.18 |
| A22U A24G A30G | 1.19 |
| A23G A54G A114G | 0.69 |
| A22G U49C U124C G137A | 1.08 |
| A23G A54G A55G | 1.18 |
| A22U A60G A82G U87C A94G G106A U132C | 0.01 |
| A22U U57C A118U | 0.22 |
| A23G A56G A59G U87C A91G U100A | 0.11 |
| A22G U72C A95G A117G | 0.31 |
| A23G A59G A94G | 0.77 |
| A23G U39C A114U | 0.05 |
| A23G A55G A92G U97C U131C | 1.2 |

| Variant | self-cleavage |
| --- | --- |
| A23G G41A U102C A114G A135U | 0.73 |
| A22G U39G A117G | 1.42 |
| A23G A86G U100C | 1.47 |
| A23G A63G A64G | 0.75 |
| A23G C35U U38C | 1.02 |
| A23G A51C A66G | 1.31 |
| A23G C40U A69U A110G A117G | 0.2 |
| A23G U38C A63C U120A | 1.57 |
| A23G U49A A51G U100C U108C | 0 |
| A22U U37C U102C U120C | 2.26 |
| A23G A60G A114U | 0.07 |
| A22G G29U U49C A66G A69G A95G U97C | 0.82 |
| A22G U49C A62G A64G A86U U87C A94G A96G | 0.18 |
| A22U A47G A126G U130C | 0.32 |
| A23G G58A A59G U72C U100C U108C U124C | 0 |
| A23G A24G U38C A54G | 1.06 |
| A23G A33U A54G A63G G104A A126G A129G | 0.03 |
| A23G U38C A67G U87C A91G | 0.58 |
| A22G A95G U131C | 2.62 |
| A23G U37C A125G | 0.45 |
| A23G A95G A118G | 2.2 |

| Variant | self-cleavage |
| --- | --- |
| A22G C42U U120C A140G | 0.61 |
| A23G U49A A78U A92U U132C U133C | 0.28 |
| A22G U87C A92G | 1.13 |
| A23G A68G A129G | 1.22 |
| A22U C112A A116G | 0 |
| A22G U38A U39C A69G A98U | 2.21 |
| A23G U37C A51G A114C A118G | 0 |
| A23G A68G A98G | 0.23 |
| A23G G75A U122C | 0.21 |
| A22G U39C G41C A59G C85U | 0.48 |
| A22G U43C U49C A63G | 1.36 |
| A22G U57C A66G G79A | 0.15 |
| A22U A33U A78G | 0.37 |
| A23G A59G A125U | 1.12 |
| A23G A24G A64G U124C | 0.97 |
| A22U U124C A135U | 0.72 |
| A22U A36G G41A U49A U97A | 1.29 |
| A22G U39C A47U | 1.23 |
| A23G A36G A126G | 0.62 |
| A22U A24G U39A C88A | 1.51 |
| A22G A92G U97C | 1.35 |
